# Laboratory results taken from PubChem BioAssay AID1030 (National Center for Advancing Translational Sciences (NCATS), 2008).
# “And” between values parts separate entries of the source, which are not always exact repeats. Equal entries are not always repeated. Out of some 220,000 compounds screened, about 16,000 (7.3%) were called active. Inconclusive results, whose numbers are uncertain, are shown with a selection of clear calls. The call rests on the fitted dose curve; in most records, active means well fitted inhibition curve with a large enough effect (not every such curve was filed as active); inconclusive means small, poorly fitted or top-dose-only effect, or another doubt; inactive means no such curve, though single readings can be large or run the other way. No potency is given beside an inconclusive call; the fits are too rough.
# Target: Aldehyde dehydrogenase 1A1 (Homo sapiens) (UniProt P00352)
# Sequence of UniProt P00352 (P00352 whole entry, looked up): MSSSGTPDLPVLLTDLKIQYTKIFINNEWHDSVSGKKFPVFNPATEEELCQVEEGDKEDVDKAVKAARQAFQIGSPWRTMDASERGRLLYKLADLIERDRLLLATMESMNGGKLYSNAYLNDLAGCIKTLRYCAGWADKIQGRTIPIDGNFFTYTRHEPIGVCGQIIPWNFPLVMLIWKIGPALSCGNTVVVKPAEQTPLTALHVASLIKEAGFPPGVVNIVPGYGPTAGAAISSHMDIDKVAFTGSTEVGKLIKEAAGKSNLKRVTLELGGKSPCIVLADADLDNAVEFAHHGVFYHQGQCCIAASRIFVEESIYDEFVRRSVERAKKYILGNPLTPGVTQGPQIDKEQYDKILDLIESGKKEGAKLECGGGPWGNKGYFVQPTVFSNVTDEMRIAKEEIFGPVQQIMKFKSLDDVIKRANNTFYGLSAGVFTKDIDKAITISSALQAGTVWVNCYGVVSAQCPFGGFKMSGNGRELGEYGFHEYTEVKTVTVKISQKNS
# Experiment: qHTS Assay for Inhibitors of Aldehyde Dehydrogenase 1 (ALDH1A1);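 on activity, negative = inhibition: plate controls were no enzyme wells and a reference inhibitor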
# Settings: Purified ALDH1A1, NADH fluorescence, propionaldehyde substrate; series mostly up to 75.3 µM; activity, negative = inhibition: at the top concentration
# Potency means the concentration at half of the fitted maximal effect; tags describe the fitted curve by direction and shape.
Structure (SMILES),Potency,"activity, negative = inhibition"
O=C(CSc1nnc(-c2ccc(Cl)s2)o1)N1CCCc2ccccc21,"inconclusive [inhibitor, single point]",
O=C(c1ccc2c(c1)OCO2)N1CCN=C1SCc1ccccc1,active: 11.2 µM,
Cc1ccc(C2NCCS2)cc1 (configuration not stated),,inactive: 7.31%
CCN(C(=O)COc1cccc2cccnc12)C1CCS(=O)(=O)C1 (configuration not stated),,inactive: -10.6%
O=C(O)CCCCCNc1nc2ncn(Cc3ccccc3)c2c(=O)[nH]1,"inconclusive [inhibitor, single point]",
Cn1c2ccccc2c2c(C(=O)NCc3ccco3)cn(C3CCCCC3)c(=O)c21,"inconclusive [inhibitor, partial curve]",
COc1cccc2c1C(=O)c1c(O)c3c(c(O)c1C2=O)C[C@@](O)(C(C)=O)C[C@@H]3O[C@H]1C[C@H](N)[C@H](O)[C@H](C)O1,"inconclusive [inhibitor, single point]",
CCSc1nnc(NC(=O)c2cc3c(s2)CCCC3)s1,"inconclusive [inhibitor, partial curve]",
COc1ccc(S(=O)(=O)N(CC(=O)O)Cc2ccccc2)cc1OC,,inactive: -31.3%
COc1cc(-c2noc(-c3ccccc3C(=O)NCc3ccco3)n2)cc(OC)c1OC,,inactive: 0.594%
CCCCC(CC)CNC(=O)CCS(=O)(=O)c1cccc2nonc12 (configuration not stated),"inconclusive [inhibitor, single point]",
O=C(NCC1CCCO1)c1ccc2c(=O)n(CC3CCCO3)c(SCC(=O)N3CCCC3)nc2c1 (configuration not stated),"inconclusive [inhibitor, partial curve]",
CCN(CC)c1ccc(/C=N/n2c(=S)[nH]nc(C)c2=O)cc1,"inconclusive [inhibitor, single point]",
CCOC(=O)CCNC(=O)Nc1ccc2nc(C)n(Cc3cccc(Cl)c3)c(=O)c2c1,"inconclusive [inhibitor, partial curve]",
O=C(CSc1ccc2nnc(-c3ccc(Cl)cc3)n2n1)N1CCCc2ccccc21,,inactive: -8.33%
CC(C)CCNC(=O)CNC(=S)N(Cc1ccccc1)Cc1cccnc1,"inconclusive [inhibitor, single point]",
CC(C)C[C@@H](CC(=O)N[C@@H](CCC(=O)O)CC(=O)O)NC(=O)[C@@H]1CNCC[C@H]1NC(=O)C[C@H](CCCN)NC(=O)C[C@H](CO)NC(=O)[C@@H]1CNCC[C@H]1N,"inconclusive [inhibitor, single point]",
CC1(C)CC(=O)c2cnc(N3CCN(c4ccccc4)CC3)nc2C1,"inconclusive [inhibitor, full curve]",
COc1ccc(OC)c([N+](=O)[O-])c1C(N)=O,,inactive: 0.601%
CC(C)=CCC/C(C)=C/C=O,"inconclusive [inhibitor, single point]",
CNCc1ccccc1OCC(=O)Nc1ccccc1OC,,inactive: 4.59%
O=C(NCc1ccccc1)C1=C[C@@H](c2ccc(Br)cc2)C[C@@H](OCc2ccc(CO)cc2)O1,"inconclusive [inhibitor, partial curve]",
FC(F)(F)c1nc2ccccc2nc1N/N=C\c1ccccc1,,inactive: -5.13%
COC(=O)[C@@]1(Cc2ccccc2)[C@H]2c3cc(C(=O)N(C)C)n(Cc4ccc(O)c(OC)c4)c3C[C@H]2CN1C(=O)c1ccccc1,,inactive: 7.42%

Structure (SMILES),Potency,"activity, negative = inhibition"
O=S(=O)(c1ccccc1)c1nc(-c2ccco2)oc1NCc1cccnc1,"inconclusive [inhibitor, single point]",
O=C(O)c1ccc(-c2ccc(/C=C3\NC(=O)N(Cc4ccc(Cl)cc4)C3=O)o2)cc1,"inconclusive [inhibitor, partial curve]",
O=C(c1cccs1)N1CCC(c2ccccc2)C1 (configuration not stated),,inactive: -15.3%
Cc1ccc(CONC(=O)/N=C/N(C)C)cc1,,inactive: 9.8%
O=C(c1ccc(Cl)c(S(=O)(=O)N2CCOCC2)c1)N1CCCCC1,,inactive: 8.11%
O=C(CCN1C(=O)c2cccc([N+](=O)[O-])c2C1=O)Nc1nccs1,"inconclusive [inhibitor, single point]",
CCN(CC)S(=O)(=O)c1ccc(N2CCOCC2)c(NC(=O)Cc2ccc(Cl)cc2)c1,active: 25.1 µM,
O=C(/C=C/c1cccc([N+](=O)[O-])c1)Nc1ccccn1,,inactive: 20.9%
COc1ccc(C2CC(=O)c3c(O)cc(O[C@H]4OC(COC5OC(C)C(O)C(O)[C@@H]5O)C(O)C(O)C4O)cc3O2)cc1O (some centres not stated),,inactive: 8.68%
CCOc1ccc(NC(=O)CC2NCCNC2=O)cc1 (configuration not stated),,inactive: 9.3%
COc1cccc(Oc2ccc(N)cn2)c1,"inconclusive [inhibitor, single point]",
Cc1ccc2nc(SCC(=O)c3ccc4c(c3)NC(=O)CO4)[nH]c2c1,"inconclusive [inhibitor, single point]",
CC(NS(=O)(=O)c1ccccc1)C1COc2ccccc2O1 (configuration not stated),"inconclusive [inhibitor, single point]",
O=C(NCc1ccco1)c1nn2c(C(F)(F)F)cc(-c3cccs3)nc2c1Br,active: 22.4 µM,
Cn1c(SCC(=O)Nc2ccccc2F)nnc1-c1ccc(S(=O)(=O)N2CCOCC2)cc1,"inconclusive [inhibitor, single point]",
O=C(CCc1ccccc1)NC(=S)Nc1cc(C(F)(F)F)ccc1N1CCOCC1,"inconclusive [inhibitor, single point]",
CCOc1cc2[nH]c(=S)n(C(C)C)c(=O)c2cc1OCC,"inconclusive [inhibitor, full curve]",
C[C@H](CO)NC(=O)[C@H](C)[C@H]1C[C@]1(C)[C@H](NC(=O)OCc1ccccc1)c1ccccc1,active: 4.47 µM and active: 22.4 µM,
O=C(COC(=O)CC(c1ccccc1)c1ccccc1)Nc1c(F)cccc1F,"inconclusive [inhibitor, single point]",
CN(C)c1ccc(/C=C(\C#N)C(=O)c2ccccc2)cc1,active: 7.08 µM,
CCC(Oc1ccc2c(c1)C(=O)CC(C)(C)O2)C(=O)NCCN1CCCCCC1 (configuration not stated),"inconclusive [inhibitor, partial curve]",
CCOc1ccc2ccccc2c1/C=N\NC(=O)OC,"inconclusive [inhibitor, single point]",
CCOC(=O)C1CCN(Cc2c(F)cccc2Cl)CC1,,inactive: -8.33%
O=C(O)C1CCC(=O)N(C2CCCCC2)C1c1ccccc1Cl (configuration not stated),,inactive: -5.99%

Structure (SMILES),Potency,"activity, negative = inhibition"
CCCCN(Cc1cc2cc(OC)ccc2[nH]c1=O)C(=O)c1ccco1,"inconclusive [inhibitor, single point]",
COC(=O)c1ccc(CN2C(=O)NC3(CCCCC3C)C2=O)o1 (configuration not stated),,inactive: -0.828%
COc1ccccc1-c1cc(C(F)(F)F)nc(S(=O)(=O)CCCC(=O)Nc2cc(C)on2)n1,"inconclusive [inhibitor, single point]",
COCc1ccc(CN2CCCC(CO)(Cc3ccccc3)C2)o1 (configuration not stated),"inconclusive [inhibitor, full curve]",
COC(=O)C1=CN(CCOC23CC4CC(CC(C4)C2)C3)C=C(C(=O)OC)C1c1ccsc1,"inconclusive [inhibitor, partial curve]",
Cc1cc(NS(=O)(=O)c2ccc(NC(=O)c3cnc4sccn4c3=O)cc2)nc(C)n1,"inconclusive [inhibitor, single point]",
CC(C)P(=O)(Cc1cccc(C#N)c1)C(C)C,,inactive: 0.0574%
CCN(CC)c1ccc(NC(=O)C2CC3CCC2C3)cc1 (configuration not stated),active: 12.6 µM,
COc1ccc(CCNC(=O)C(Sc2ccccn2)c2ccccc2)cc1OC (configuration not stated),,inactive: -13.6%
COc1cc(CNCc2ccccc2C(F)(F)F)cc(OC)c1,"inconclusive [inhibitor, single point]",
CCc1nc(N2CCC(C)CC2)c2oc3ccccc3c2n1,"inconclusive [inhibitor, single point]",
CCNc1ncc2nc(-c3ccccc3)c(=O)n(Cc3cccs3)c2n1,"inconclusive [inhibitor, partial curve]",
CCOC(=O)c1cc(-c2ccccc2)sc1NC(=O)COC(=O)c1cccc(S(N)(=O)=O)c1,,inactive: 5.24%
COc1cc(OC)cc(C(=O)N=c2sc3ccccc3n2C)c1,"inconclusive [inhibitor, single point]",
COc1ccc(C(C)=O)cc1CSc1nnc(Nc2ccccc2C)s1,"inconclusive [inhibitor, single point]",
COc1ccc(/C=N/NC(=O)CN2CCSCC2)cc1C,active: 10 µM,
COc1ccccc1NS(=O)(=O)c1cc(N)ccc1N1CCCCC1,active: 3.16 µM,
CCn1c(=N)c(S(=O)(=O)c2ccc(F)cc2)cc2c(=O)n3ccccc3nc21,"inconclusive [inhibitor, partial curve]",
COc1ccc(-c2cc(C(F)(F)F)nc(SCC(=O)NCc3cccs3)n2)cc1OC,"inconclusive [inhibitor, single point]",
O=c1c2ccccc2cnn1Cc1n[nH]c(=S)n1-c1ccccc1,,inactive: 0.258%
Nc1ccc(S(=O)(=O)O)cc1,active: 31.6 µM,
COc1ccc(-c2ccc(CCC(=O)O)n2-c2ccc(O)cc2)cc1,"inconclusive [inhibitor, single point]",
COc1ccc(C(=O)NC(C)c2cc(OC)c(OC)cc2Br)cc1 (configuration not stated),,inactive: -3.51%
Cc1ccc(-c2nc(CS(=O)(=O)CC(=O)N3CCCCCC3)c(C)o2)cc1,"inconclusive [inhibitor, single point]",
